# Results: patent publication US20210130473A1, “TGFßR1 INHIBITOR-ASGR ANTIBODY CONJUGATES AND USES THEREOF” (Silverback Therapeutics, Inc., priority 2019, published 2021)
# Numbering of substitutions follows the chain as printed. Numbers in names are those of the source.
# T1: human ASGR1 extracellular domain (ECD) (Homo sapiens, UniProt P07306)
# T1 sequence (P07306 62-291 limits assumed): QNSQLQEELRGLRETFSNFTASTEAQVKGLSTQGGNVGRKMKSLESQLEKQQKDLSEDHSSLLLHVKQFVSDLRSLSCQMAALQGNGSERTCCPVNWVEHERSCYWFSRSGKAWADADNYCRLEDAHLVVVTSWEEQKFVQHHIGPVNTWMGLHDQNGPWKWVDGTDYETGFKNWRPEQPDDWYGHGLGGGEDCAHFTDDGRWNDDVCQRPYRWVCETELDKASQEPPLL
# T2: HepG2 cells (which express ASGR1) (Homo sapiens, UniProt P07306)
# T2 construct: endogenous in cells; host or cells: HepG2
# T2 sequence (P07306 1-291): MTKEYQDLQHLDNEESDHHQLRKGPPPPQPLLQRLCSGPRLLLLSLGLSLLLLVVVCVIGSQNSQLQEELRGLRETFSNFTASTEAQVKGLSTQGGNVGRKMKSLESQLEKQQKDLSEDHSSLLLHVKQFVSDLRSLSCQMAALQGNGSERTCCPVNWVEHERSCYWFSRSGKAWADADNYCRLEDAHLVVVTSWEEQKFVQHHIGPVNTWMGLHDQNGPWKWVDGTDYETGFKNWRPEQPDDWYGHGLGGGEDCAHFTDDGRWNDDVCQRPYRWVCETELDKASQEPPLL
# B1: chG2D: "Chimeric antibodies were chG2D (heavy chain SEQ ID NO:150; light chain SEQ ID NO:206)" (antibody)
# heavy: EVQLQQSGPELVKPGASVKISCKASGYSFTGYYMHWVKQSHVKSLEWIGRINPNNGATNYNQNFKDKASLTVDKSSSTAYMEFHSLTSEDSAVYYCTSVNFYYWGQGTTLTVSS[… human IgG1 constant region …]
# light: DIKMTQSPSSMYASLGERVTITCKASQVINSYLSWFQQKPGKSPETLIYRANTLVDGVPSRFSGSGSGQDYSLTISSLEYEDLGIYYCLQYAEFPYTFGGGTKLEIKRTVAAPSVFIFPPSDEQLKSGTASVVCLLNNFYPREAKVQWKVDNALQSGNSQESVTEQDSKDSTYSLSSTLTLSKADYEKHKVYACEVTHQGLSSPVTKSFNRGEC
# modifications: Synthetic sequence chG2D Heavy Chain; Synthetic sequence chG2D Light Chain
# B2: chH8K: "Chimeric antibodies were ... chH8K (heavy chain SEQ ID NO:153; light chain SEQ ID NO:209)" (antibody)
# heavy: DVQLQESGPGLVKPSQSLSLTCTVTGFSITSDYAWNWIRQFPGNQLEWMGYRSYRGSTSYNPSLKSRISITRDTSKNQFFLQLNSVTTEDTATYYCARRGYYGSSSHWYFDVWGAGTTVTVSS[… human IgG1 constant region …]
# light: DIQMTQSPASLSASVGETVTITCRASENIYSYLAWYQQKQGKSPQLLVYNAKTLAEGVPSRFSGSGSGTQFSLKINSLQPEDFGSYYCQHHYGTPLTFGSGTKLELKRTVAAPSVFIFPPSDEQLKSGTASVVCLLNNFYPREAKVQWKVDNALQSGNSQESVTEQDSKDSTYSLSSTLTLSKADYEKHKVYACEVTHQGLSSPVTKSFNRGEC
# modifications: Synthetic sequence chH8K Heavy Chain; Synthetic sequence chH8K Light Chain
# B3: hzG2D-15: humanized G2D clone; VL "grafted into the human germline sequence VKI-L1 with JK4 to generate hzG2D VLa (SEQ ID NO:131)" (antibody)
# heavy: QVQLVQSGAEVKKPGASVKVSCKASGYTFTGYYMHWVRQAPGQRLEWMGRINPNNGATNYNQNFKDKASLTVDTSASTAYMELSSLRSEDTAVYYCTSVNFYYWGQGTTLTVSS[… human IgG1 constant region …]
# light: DIQMTQSPSSLSASVGDRVTITCKASQVINSYLSWFQQKPGKAPKSLIYRANTLVDGVPSRFSGSGSGTDFTLTISSLQPEDFATYYCLQYAEFPYTFGGGTKVEIKRTVAAPSVFIFPPSDEQLKSGTASVVCLLNNFYPREAKVQWKVDNALQSGNSQESVTEQDSKDSTYSLSSTLTLSKADYEKHKVYACEVTHQGLSSPVTKSFNRGEC
# B4: hzG2D-16: humanized G2D clone; VL "grafted into the human germline sequence VKI-L1 with JK4 to generate hzG2D VLa (SEQ ID NO:131)" (antibody)
# heavy: B3 heavy with T28S
# light: B3 light
# B5: G2D-C (antibody)
# heavy: B1 heavy
# light: B1 light
# B6: hzG2D-21: humanized G2D clone; VL "grafted into the human germline sequence VKI-L1 with JK4 to generate hzG2D VLa (SEQ ID NO:131)" (antibody)
# heavy: B3 heavy with L110V
# light: B3 light
# B7: hzG2D-22: humanized G2D clone; VL "grafted into the human germline sequence VKI-O2 with JK4 to generate hzG2D VLb (SEQ ID NO:247)" (antibody)
# heavy: B3 heavy with T97A, S98R, L110V
# light: B3 light with F36Y, S46L
# B8: hzG2D-23: humanized G2D clone; VL "grafted into the human germline sequence VKI-O2 with JK4 to generate hzG2D VLb (SEQ ID NO:247)" (antibody)
# heavy: B3 heavy with L110V
# light: B3 light with F36Y, S46L
# B9: hzG2D-24: humanized G2D clone; VL "grafted into the human germline sequence VKI-A20 with JK4 to generate hzG2D VLc (SEQ ID NO:249)" (antibody)
# heavy: B3 heavy with T97A, S98R, L110V
# light: B3 light with F36Y, A43V, S46L, F83V
# B10: hzG2D-25: humanized G2D clone; VL "grafted into the human germline sequence VKI-A20 with JK4 to generate hzG2D VLc (SEQ ID NO:249)" (antibody)
# heavy: B3 heavy with L110V
# light: B3 light with F36Y, A43V, S46L, F83V
# B11: hzG2D-1: humanized G2D clone; VL "grafted into the human germline sequence VKI-L1 with JK4 to generate hzG2D VLa (SEQ ID NO:131)" (antibody)
# heavy: B3 heavy with K67R, A68V, S69T, L70I, V72R, T97A, S98R
# light: B3 light
# Columns and labels:
# [1] = molecular target: T1, human ASGR1 extracellular domain (ECD); assay: Effect of calcium on anti-ASGR1 binding and dissociation (OCTET Red 96, Penta-His biosensors); design: key to Ca2+ sensitivity during association / Ca2+ sensitivity during dissociation / Ca2+ Sensitivity: N = No; Y = Yes; conditions: for calcium sensitivity of binding to human ASGR1 ECD: sensitive: difference in binding signal after dissociation with vs without calcium >±10%
# Experimental: The ability of anti-human ASGR1 antibodies of this disclosure to bind to human ASGR1 in the presence or absence of calcium in binding buffer was examined. Briefly, ASGR1 antibodies were bound to immobilized human ASGR1 extracellular domain (ECD) at saturating levels and subsequently dissociated under three different conditions as follows: (a) binding and dissociation with buffer containing calcium (PBS+1% BSA+0.2% Tween20+0.9 mM CaCl2), pH 7.4); (b) binding with buffer containing calcium and dissociation with buffer lacking calcium; and (c) binding and dissociation with buffer lacking calcium. Analysis of ASGR1 antibody binding to human ASGR1 ECD was performed using the OCTET® Red 96 instrument and analyzed using the OCTET®Data Analysis Software 9.0 (ForteBio). His-tagged human ASGR1 ECD was immobilized to OCTET® Penta-His biosensors and ASGR1 antibodies were subjected to avidity binding under the conditions described above. Association with the ASGR1 ECD was measured by the rate of and increase in magnitude of signal response at a given antibody concentration. Dissociation from the ASGR1 ECD was measured the rate of loss in signal upon removal of the antibody and further incubation with or without Ca^2+. […] Also tested were humanized antibodies hzH8K-1 and hzL4L-7.
# Further analysis of the antibodies of this disclosure was to determine whether the presence of calcium was needed for binding (i.e., during association) of the antibodies to human ASGR1 ECD. […]
# [2] = molecular target: T2, HepG2 cells (which express ASGR1); assay: Guava HepG2 cell binding screen of anti-ASGR1 mAbs; conditions: humanized G2D clones; two numbers per cell, their meaning is not given
# Experimental: Additionally, hybridomas producing monoclonal antibodies (mAbs) specific for human ASGR1 were prepared from Balb/C mice immunized with ASGR1-AviHis at a service provider using their propriety protocol. Antibody heavy and light chain sequences were obtained, amplified, and cloned. Clone supernatants containing the expressed mAbs were screened for binding to a human ASGR1-IgG1Fc fusion protein, and those with a positive signal as measured by enzyme linked immunosorbent assay (ELISA) were screened for cell binding on HepG2 cells (which express ASGR1). […] The isolated mAbs were further analyzed for the additional characteristics including, for example, titer, low aggregate content following protein A purification, high titer, lack of cross-blocking of ligand GalNac, calcium sensitivity, and cross-reactivity with rat ASGR1 protein.
Molecule,Guava HepG2 Screen [2],further results
B1,,"Ca2+ sensitivity during association ([1]; binding to human ASGR1 ECD with or without calcium, OCTET): Y; Ca2+ sensitivity during dissociation ([1]; dissociation from human ASGR1 ECD with or without calcium, OCTET): N; Ca2+ Sensitivity ([1]; overall summary column): Y; calcium sensitivity of binding to human ASGR1 ECD [1]: lacking sensitivity to calcium"
B2,,calcium sensitivity of binding to human ASGR1 ECD [1]: lacking sensitivity to calcium
B3,172/119,
B4,165/108,
B5,187/145,
B6,199/127,
B7,None,
B8,198/131,
B9,None,
B10,None,
B11,32/19,
